Laboratory results reported in ChEMBL document CHEMBL4888484, “Replenishing the malaria drug discovery pipeline: Screening and hit evaluation of the MMV Hit Generation Library 1 (HGL1) against asexual blood stage Plasmodium falciparum ,using a nano luciferase reporter read-out” (2022).
Hit rate of the full screen: of about 150,000 compounds, about 540 (0.36%) showed an effect of 50% or more. Some of the results follow.

What follows are molecules tested on Plasmodium falciparum (assay: Primary screen in NF54 nanoGlo assay, in single point, at 2uM, 72h; a lower Z score goes with more inhibition). Settings: timepoint 72 hour.
Assay type: functional, Erythrocyte
In the case of `C[C@H](NCc1csc(COc2ccc(Cl)cc2)n1)c1ccncc1`, the “% Inhibition” value is reported as -4% and the Z score is reported as 0.54.
In the case of `CCN(C)c1ccnc(N(C)Cc2cccnc2)n1`, the “% Inhibition” value is reported as -2% and the Z score is reported as 0.25.
For `CCc1[nH]nc(-c2ccc(F)c(F)c2)c1NC(=O)Cc1ccc(OC)cc1`, the “% Inhibition” value was -4% and the Z score was 0.46.
With `C[C@H]1CCc2onc(C(=O)N3CCN(c4ccccn4)CC3)c2C1` the “% Inhibition” value was -19% and the Z score was 3.26.
With `CC(C)(C)c1cc(NC(=O)CS(=O)(=O)c2ccccc2F)on1` the “% Inhibition” value was -3% and the Z score was 0.42.
With `C[C@@H](C(=O)N1CC(OCc2ccccc2F)C1)N1CCN(C)CC1` the “% Inhibition” value was -8% and the Z score was 1.21.
In the case of `CC(C)CN(Cc1cccc(Cl)c1)C(=O)c1cc(C(=O)O)nn1C`, the “% Inhibition” value is reported as -3% and the Z score is reported as 0.41.
In the case of `CC(C)[C@@](C)(C#N)NC(=O)Cn1cccc(C#N)c1=O`, the “% Inhibition” value is reported as -7% and the Z score is reported as 1.19.
`CN(C)C(=O)CN1CCC2(CC1)CN(CCOc1ccccc1)C(=O)O2` was tested, and the “% Inhibition” value was 3% and the Z score was -0.5.
In the case of `O=C(Nc1cccc(Br)c1)c1ccc(Oc2nccnc2N2CCCCC2)cc1`, the “% Inhibition” value is reported as -3% and the Z score is reported as 0.27.
`COC1CCCC(C(=O)N2CCN(Cc3c(-c4ccc(Cl)cc4)nc4ccc(-c5cccc(C)c5)cn34)CC2)C1` (stereo unspecified) was tested, and the “% Inhibition” value was -12% and the Z score was 1.81.
In the case of `COc1cccc(-c2cc3c(N4CCC[C@H](C(=O)NCc5cccc(Cl)c5)C4)nccn3n2)c1`, the “% Inhibition” value is reported as -1% and the Z score is reported as 0.18.
With `CN(C)C[C@@H]1CN(C)C[C@H]1NS(=O)(=O)c1ccc(Cl)cc1` the “% Inhibition” value was -12% and the Z score was 1.86.
`CC(C)NC(=O)CCN1CCC2(CC1)C[C@@H](c1ccccc1)C(=O)N(C)C2` was tested, and the “% Inhibition” value was -24% and the Z score was 2.19.
`O=C1NCCC[C@@H]1Nc1ncccc1Br` was tested, and the “% Inhibition” value was -18% and the Z score was 2.28.
In the case of `CNC(=O)[C@H]1CC[C@H](CNc2nccnc2N(C)C)CC1`, the “% Inhibition” value is reported as -7% and the Z score is reported as 1.1.
For `COc1ccccc1N(C)CC(=O)N[C@H]1CCS(=O)(=O)C1`, the “% Inhibition” value was 14% and the Z score was -2.63.
`CC(C)c1cc(C(=O)N2CCC3(CC2)CC(=O)N(C[C@H]2CCCO2)C3)no1` was tested, and the “% Inhibition” value was -3% and the Z score was 0.45.
`CN(C)Cc1csc(-c2nccn2CCn2cnnc2)c1` was tested, and the “% Inhibition” value was -12% and the Z score was 1.56.
In the case of `CO[C@@H](C(=O)NC1(c2c(F)cccc2F)COC1)c1ccc(O)cc1`, the “% Inhibition” value is reported as -4% and the Z score is reported as 0.68.
`CC1CCN(C(=O)CNc2nn(C)cc2C(N)=O)CC1` was tested, and the “% Inhibition” value was -11% and the Z score was 1.58.
`CC(C)Oc1ccccc1C(=O)Nc1ccc2c(c1)C(=O)NC2` was tested, and the “% Inhibition” value was -4% and the Z score was 0.6.
`Cc1oc(-c2ccc(Cl)cc2)cc1C(=O)NCCc1ccccc1` was tested, and the “% Inhibition” value was -8% and the Z score was 1.01.
